Target: KEAP1 Kelch (kelch-like ECH-associated protein 1, Kelch domain) (human) (UniProt Q14145)
Assay: fluorescence polarisation; competition: unlabelled peptide in serial dilution against the protein domain (master mix at four times the KD) with its FITC-labelled probe peptide; 50 mM KPO4 or NaPO4 pH 7.5; Ki calculated from IC50

Chain of UniProt Q14145 (Q14145 whole entry, the tested form may be a part): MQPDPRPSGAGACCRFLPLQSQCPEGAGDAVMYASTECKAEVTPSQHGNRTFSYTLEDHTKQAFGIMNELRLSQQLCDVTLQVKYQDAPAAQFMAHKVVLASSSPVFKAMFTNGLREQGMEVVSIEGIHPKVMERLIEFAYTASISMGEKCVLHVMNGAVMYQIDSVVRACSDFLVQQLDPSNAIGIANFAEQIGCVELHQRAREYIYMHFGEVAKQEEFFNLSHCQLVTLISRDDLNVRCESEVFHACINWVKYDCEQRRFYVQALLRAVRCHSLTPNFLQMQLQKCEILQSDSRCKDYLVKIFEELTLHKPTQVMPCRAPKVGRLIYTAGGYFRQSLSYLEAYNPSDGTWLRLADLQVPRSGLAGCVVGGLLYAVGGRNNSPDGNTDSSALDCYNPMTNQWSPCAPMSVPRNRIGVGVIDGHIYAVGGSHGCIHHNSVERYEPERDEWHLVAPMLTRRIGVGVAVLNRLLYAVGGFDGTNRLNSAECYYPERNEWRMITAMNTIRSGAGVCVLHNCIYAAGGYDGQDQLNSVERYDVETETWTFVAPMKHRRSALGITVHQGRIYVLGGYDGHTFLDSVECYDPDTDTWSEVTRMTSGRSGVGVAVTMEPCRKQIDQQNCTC

Ac-GIIDPSTGECFPVTDY-NH2 [PLEC 4457-4471 peptide with an extra C-terminal Y, R4466C (sheet label R4472C)] showed an IC50 of 2300 nM and a Ki of 790 nM.

From article PMC8769072, “Proteome‐scale mapping of binding sites in the unstructured regions of the human proteome” (Molecular Systems Biology, 2022)
